PubChem BioAssay AID504706 (National Center for Advancing Translational Sciences (NCATS), 2011)
In all, about 320,000 compounds went through this assay and about 200 (0.062%) were called active. This list was built around the results that the source calls inconclusive (neither active nor inactive); the mix of calls is not that of the screen. Calls come from the whole dose curve; as a rule, active = well fitted activation curve with a large enough effect; inconclusive = small, poorly fitted or top-dose-only effect; inactive = no such curve, though single readings can be large or run the other way. No potency is given beside an inconclusive call; the fits are too rough.

Experiment: qHTS assay for re-activators of p53 using a Luc reporter; note: nearly all actives have a fitted effect of over 45% in size
Conditions: H1299 p53-A138V BP100-luciferase reporter, luminescence, 24 h; series mostly up to 92.2 µM
In short: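 H1299 (p53-null), stable ts p53-A138V + BP100-Luc; 1000 cells/well, Opti-MEM/10% FBS; cpd 4 pt, 1:5; 24 h, 37 deg C, 5% CO2; detection reagent 10 min RT; luminescence.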
Potency is the fitted concentration of half-maximal effect; tags give direction and shape of the fitted curve.

Q: Which Potency does the source give for O=C(Nc1ccc(Cl)cc1Cl)c1ccc2c(=O)n3c(nc2c1)CCC3 here?
A: The Potency was inconclusive [activator, full curve, poor fit].

Q: For Cc1ccnc(NC(=O)CCS(=O)(=O)c2ccccc2)c1, which Potency is on record?
A: Its Potency is inconclusive [activator, single point].

Q: For Cc1c(C(=O)Nc2ccccc2[N+](=O)[O-])csc1-c1ccccc1, which Potency is on record?
A: The Potency was inconclusive [activator, partial curve, poor fit].

Q: For CCOC(=O)c1ccc(N=Cc2nc3ccccc3n2C)cc1, which Potency is on record?
A: The Potency was inconclusive [activator, single point].

Q: With Cn1c(SCC(=O)c2ccccc2)nnc1-c1ccc(O)cc1 as the molecule, how does the Potency read?
A: The Potency was inconclusive [activator, partial curve].

Q: Which Potency does the source give for CCOC(=O)C1=CN(Cc2cccc(-c3ccc4c(c3)OCO4)c2)S(=O)(=O)N(C)C1C (stereo unspecified) here?
A: Its Potency is “inactive”.

Q: Which Potency does the source give for CCOC(=O)Cc1csc(NC(=O)CSc2nnnn2-c2ccc(C)cc2C)n1 here?
A: The Potency was “inactive”.

Q: Which Potency does the source give for COc1ccc(/C=C2\SC(=S)N(CCC(=O)NCCc3ccc(O)cc3)C2=O)cc1 here?
A: The Potency was inconclusive [activator, single point].

Q: For CC(C)(C)c1ccc(NC(=O)CC2(C(F)(F)F)OCCO2)cc1, which Potency is on record?
A: The Potency was inconclusive [activator, partial curve, poor fit].

Q: Which Potency does the source give for Cc1ccc2oc(C(=O)N(C)CCC(O)c3ccccc3)c(C)c2c1 (stereo unspecified) here?
A: The Potency was inconclusive [activator, single point].

Q: For Cc1ccc(-n2c(-c3ccc(Br)cc3)c[n+]3c2CCc2ccc4cccnc4c2-3)cc1, which Potency is on record?
A: Its Potency is “inactive”.

Q: With O=C(Nc1cccc2ccccc12)c1onc2c1CCCC2 as the molecule, how does the Potency read?
A: The Potency was inconclusive [activator, full curve, poor fit].

Q: Which Potency does the source give for O=C(CNc1cc(S(=O)(=O)N2CCCC2)ccc1OCC(F)(F)F)Nc1cccc(C(F)(F)F)c1 here?
A: Its Potency is “inactive”.

Q: For CC(=O)N1N=C(c2ccc(C)cc2)OC1c1ccc(Br)cc1 (stereo unspecified), which Potency is on record?
A: Its Potency is “inactive”.

Q: With Cc1csc(C(C)NC(=O)c2ccc(OC3CCN(CCc4ccccc4)CC3)cc2)n1 (stereo unspecified) as the molecule, how does the Potency read?
A: The Potency was “inactive”.

Q: With COCC(=O)Nc1nnc(-c2cccs2)s1 as the molecule, how does the Potency read?
A: The Potency was inconclusive [activator, partial curve, poor fit].

Q: With CC1CC(C)CN(CCCNC(=O)c2cc3c(=O)[nH]c4ccccc4c3n2C)C1 (stereo unspecified) as the molecule, how does the Potency read?
A: The Potency was “inactive”.

Q: For O=C1CC(=C(c2ccccc2)c2ccccc2)C(=O)N1CCN1CCN(c2cccc(Cl)c2)CC1, which Potency is on record?
A: Its Potency is “inactive”.

Q: Which Potency does the source give for Cc1cc(C(=O)O/N=C(\N)c2ccncc2)ccc1[N+](=O)[O-] here?
A: The Potency was inconclusive [activator, partial curve, poor fit].

Q: For O=C1/C(=C/c2cccc(Br)c2)SC(=S)N1CCC(=O)N(CCO)c1ccccc1, which Potency is on record?
A: The Potency was inconclusive [activator, full curve, poor fit].

Q: For COc1ccc2cc(-c3ccn[nH]3)ccc2c1, which Potency is on record?
A: Its Potency is inconclusive [activator, full curve, poor fit].

Q: For Cc1cccc(-c2noc(CSc3ccccc3)n2)c1, which Potency is on record?
A: Its Potency is inconclusive [activator, single point].

Q: With COc1ccc2cc(-c3ccsc3)ncc2c1 as the molecule, how does the Potency read?
A: The Potency was inconclusive [activator, full curve, poor fit].

Q: Which Potency does the source give for CCCCCCCCOC1OC(CO)C(O)C(O)C1NC(C)=O (stereo unspecified) here?
A: The Potency was inconclusive [activator, single point].

Q: For Cc1ccc(C(=O)CSc2nc(C(C)C)nc3ccccc23)cc1, which Potency is on record?
A: Its Potency is “inactive”.

Q: With C1=C(c2ccco2)N2CCN=C2S1 as the molecule, how does the Potency read?
A: The Potency was inconclusive [activator, single point].

Q: For CCOC(=O)c1cc2ccc3ccccc3c2oc1=O, which Potency is on record?
A: The Potency was “inactive”.

Q: Which Potency does the source give for c1ccc(CN2CCN(c3nc(-c4ccccc4)nc(-n4ccnc4)n3)CC2)cc1 here?
A: Its Potency is “inactive”.

Q: Which Potency does the source give for Cc1ccc(S(=O)(=O)NC(=O)c2cc(C)n(-c3ccc(N(C)C)cc3)c2C)cc1 here?
A: Its Potency is inconclusive [activator, partial curve, poor fit].

Q: For CC(C)(C)c1csc(NC(=O)c2ccccc2O)n1, which Potency is on record?
A: Its Potency is “inactive”.

Q: For O=C(NCc1ccccc1)c1noc2c1CCCCC2, which Potency is on record?
A: Its Potency is inconclusive [activator, partial curve, poor fit].

Q: Which Potency does the source give for CCOC(=O)CNC(=S)N(Cc1cccs1)C1CCCCC1 here?
A: Its Potency is “inactive”.

Q: For COC(=O)C1CCN(S(=O)(=O)Cc2ccccc2)CC1, which Potency is on record?
A: The Potency was “inactive”.

Q: Which Potency does the source give for COc1ccc(-n2cc(-c3ccccc3)[nH]c2=S)cc1 here?
A: The Potency was inconclusive [activator, partial curve, poor fit].

Q: With Cc1ccc2c(COC(=O)c3ccccc3Br)cc(=O)oc2c1 as the molecule, how does the Potency read?
A: The Potency was inconclusive [activator, full curve, poor fit].

Q: With O=C(Nc1ccc(Cl)cc1Cl)c1ccc(Br)o1 as the molecule, how does the Potency read?
A: The Potency was inconclusive [activator, full curve, poor fit].

Q: With O=C(Cc1ccccc1F)Nc1ccc2c(c1)CCC2 as the molecule, how does the Potency read?
A: Its Potency is inconclusive [activator, full curve, poor fit].

Q: For CCc1ccc(OCC(=O)N2CCc3ccccc32)cc1, which Potency is on record?
A: Its Potency is inconclusive [activator, full curve, poor fit].

Q: For CC(C)Cc1ccc(C(=O)Nc2ccc(Cc3ccncc3)cc2)o1, which Potency is on record?
A: The Potency was “inactive”.

Q: With CN(C(=O)CSc1ccc(S(=O)(=O)N2CCCCC2)cn1)c1ccccc1 as the molecule, how does the Potency read?
A: Its Potency is “inactive”.

Q: Which Potency does the source give for CN(CCOc1ccccc1)C(=O)c1ccc2c(c1)OCO2 here?
A: The Potency was inconclusive [activator, partial curve, poor fit].

Q: For C=CCSc1nc(N)c2c(C)c(C)sc2n1, which Potency is on record?
A: Its Potency is inconclusive [activator, full curve, poor fit].

Q: For COCCSc1nnc(NC(=O)c2ccc([N+](=O)[O-])cc2)s1, which Potency is on record?
A: Its Potency is “inactive”.

Q: Which Potency does the source give for COc1cc2c(cc1NCc1ccc3c(c1)OCO3)oc1ccccc12 here?
A: The Potency was inconclusive [activator, partial curve, poor fit].

Q: With COc1ccc(C(=O)OCc2c(-c3ccccc3)ncc3ccccc23)cc1 as the molecule, how does the Potency read?
A: The Potency was “inactive”.

Q: Which Potency does the source give for O=C(Nc1ccc(Cl)cn1)Nc1ccccc1F here?
A: The Potency was inconclusive [activator, full curve, poor fit].
